The campaign covered roughly 100,000 compounds. About 250 (0.25%) were called active. The inconclusive results got no clear call from the source; some entries with a clear call stand among them for comparison. Calls come from the whole dose curve; as a rule, active = well fitted inhibition curve with a large enough effect; inconclusive = small, poorly fitted or top-dose-only effect; inactive = flat fitted curve, though single readings scatter. Potencies of inconclusive entries are left out as doubtful fits. The source holds several records for some structures; these can differ, active in one and inactive in another. Peptide text beside a SMILES is read from it.
Biological target: Alanine aminotransferase 2 (Homo sapiens) (UniProt Q8TD30)
UniProt Q8TD30, sequence (Q8TD30 whole entry, looked up): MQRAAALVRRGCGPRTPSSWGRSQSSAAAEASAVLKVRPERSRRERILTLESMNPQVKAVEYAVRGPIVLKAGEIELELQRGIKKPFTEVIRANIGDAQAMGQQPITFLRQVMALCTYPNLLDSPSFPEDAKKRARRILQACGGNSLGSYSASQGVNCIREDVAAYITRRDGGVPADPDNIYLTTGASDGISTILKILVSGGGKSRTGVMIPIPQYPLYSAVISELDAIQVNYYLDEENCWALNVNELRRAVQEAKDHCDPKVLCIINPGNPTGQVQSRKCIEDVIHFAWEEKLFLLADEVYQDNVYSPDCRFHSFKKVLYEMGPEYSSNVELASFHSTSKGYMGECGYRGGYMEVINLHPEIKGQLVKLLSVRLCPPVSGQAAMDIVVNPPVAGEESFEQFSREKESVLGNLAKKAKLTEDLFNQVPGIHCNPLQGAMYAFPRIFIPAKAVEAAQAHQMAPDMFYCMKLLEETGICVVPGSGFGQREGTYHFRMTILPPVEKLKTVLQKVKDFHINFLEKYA
Assay: Primary qHTS assay for inhibitors of Glutamate pyruvate transaminase 2 (GPT2); note: nearly all actives have a fitted effect of over 60% in size
Details: Recombinant GPT2, coupled pyruvate oxidase/HRP Amplex Red fluorescence; activity change, negative = inhibition: at 57.7 µM (top of the series) unless noted; series mostly up to 57.7 µM
Procedure, shortened: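 Recombinant GPT2 (10ng/uL) with 250uM a-KG and 2mM L-alanine, 30 min at room temperature, in HEPES pH 7.5 buffer. Pyruvate detected by pyruvate oxidase/HRP/Amplex Red fluorescence after 30 min in the dark; AOA (50uM) as positive control.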
% is set by controls: 0 for no effect and ±100 for the full control effect; potency is the fitted concentration of half-maximal effect; tags give direction and shape of the fitted curve.

Structure (SMILES)	Potency	activity change, negative = inhibition	outcome
Cc1ccccc1-c1ccc2c(n1)CN(CCOc1ccccc1)C(=O)CO2	inconclusive [inhibitor, partial curve, poor fit]		
CC(C)C(=O)Nc1ncc(-c2cc(C(F)F)nn2-c2c(Cl)cccc2Cl)s1	active: 10 µM		
Cn1nc(-c2ccncc2)cc1NC(=O)C1CCCC1		inactive: -2.88% [at 88.5 µM]	
CS(=O)(=O)N(Cc1cccnc1)C1CN(C(=O)C2CCCCC2)C1	inconclusive [inhibitor, full curve, poor fit]		
CCn1ncc(CN(C)C(=O)c2cc(COc3ccccc3)[nH]n2)c1C	inconclusive [inhibitor, full curve, poor fit]		
CC[C@H]1CN(C(C)=O)CC[C@H]1CC(=O)Nc1nccs1	inconclusive [inhibitor, partial curve, poor fit]		
Cn1cc([C@@H](NC(=O)c2ccc3scnc3c2)C2CC(O)C2)cn1 (stereo partly specified)	inconclusive [inhibitor, single point]		
CCN1c2cc(C(=O)Nc3ccc(Br)c(C)c3)ccc2C(=O)N2CCCC21 (stereo unspecified)			inactive
C#CCNC(=O)c1nc(-c2ccccc2)c2ccccn12			inactive [at 88.5 µM]
COc1ccc2c(c1)CCCN2C1CNC1	inconclusive [inhibitor, full curve, poor fit]		
COc1ccc(OC)c(CNC(=O)c2noc(-c3ccc(C)cc3)n2)c1	inconclusive [inhibitor, single point]		
Cc1ncc(CC(=O)NCC2CCN(c3cnn(C)c(=O)c3)C2)c(=O)[nH]1 (stereo unspecified)	inconclusive [inhibitor, single point]		
Cc1cccc(C)c1-n1c(=O)c2cnc(Nc3ccc(N4CCN(C)CC4)cc3)nc2n2c3ccccc3nc12	inconclusive [inhibitor, partial curve, poor fit]		
COc1cccc([S+](=O)([O-])N2CCC3(CC2)C(=O)NN=C3c2cccnc2)c1			inactive
CC(=O)N1CCN(c2ccc(O)cc2)CC1	inconclusive [inhibitor, full curve, poor fit]		
O=C1C(N2CCN(Cc3ccc[nH]3)CC2)CCN1Cc1cccnc1 (stereo unspecified)	inconclusive [inhibitor, single point]		
NC(=O)c1cccc(-c2cc3c(cn2)CN(CCc2ccccc2)CCN3)c1		inactive: -21.8% [at 88.5 µM]	
Cc1ccccc1C(=O)N1CCC(C(=O)N2CCC(N3CCCC3=O)CC2)CC1	inconclusive [inhibitor, full curve]		
O=C(Nc1ccccc1)N1CCCC(c2nn(-c3ccc(Cl)cc3)c(=O)[nH]2)C1 (stereo unspecified)	inconclusive [inhibitor, single point]		
CC(=O)[C@]1(O)Cc2c(O)c3c(c(O)c2[C@@H](O[C@H]2C[C@H](N)[C@@H](O)[C@H](C)O2)C1)C(=O)c1ccccc1C3=O	inconclusive [inhibitor, full curve]		
COCc1noc([C@@H]2CN(C(=O)CC3=CCCCC3)C[C@H]2CO)n1	inconclusive [inhibitor, full curve, poor fit]		

Structure (SMILES)	Potency	activity change, negative = inhibition	outcome
COC(=O)[C@H](Cc1ccccc1)NC(=O)[C@@H](N)CC(=O)O (H-Asp-Phe-OMe)	inconclusive [inhibitor, single point]		
Cc1c(O)cccc1C(=O)N1CC[C@@H](NC(=O)c2ccccn2)[C@H](O)C1	inconclusive [inhibitor, full curve, poor fit]		
C[S+](=O)([O-])N1Cc2ccccc2OC2(CCN(C(=O)c3ccc4[nH]ccc4c3)CC2)C1		inactive: -8.18%	
COc1ccccc1NC(=O)Cn1ccn2nc3c(c2c1=O)CCCC3			inactive
CC1CCC2(CC1)OCC(C(=O)NCc1ccccc1F)N2C(=O)c1ccccc1F (stereo unspecified)		inactive: -9.26%	
COc1cccc(-c2ccc(C(=O)N3CCC(N[S+](=O)([O-])c4c(C)noc4C)CC3)cc2)c1		inactive: -10.2%	
O=C(c1ccccc1)N1CCC(Oc2cccc(F)c2)(C(=O)O)CC1	inconclusive [inhibitor, single point]		
O=C1CC2(CCN(Cc3ccc(C(F)(F)F)cc3)C2)Nc2ccccc2N1 (stereo unspecified)			inactive
N#Cc1ccc(S(=O)(=O)N2CC(n3cc(C(=O)N4CCOCC4)nn3)C2)cc1		inactive: -8.91%	
O=C(O)CCC(=O)N[C@H]1CO[C@H]2[C@@H]1OC[C@@H]2n1nnnc1Oc1ccc(-n2ccnc2)cc1			inactive
COc1ccc(C(=O)N2CCC(Cc3nc(-c4ccc(F)cc4)no3)CC2)cc1F	inconclusive [inhibitor, single point]		
COc1ccc(CNC2(Cc3cc(-c4ccc(OC)cc4)on3)COC2)cc1	inconclusive [inhibitor, full curve, poor fit]		
COc1ccc(-c2nc(C3CN(C(=O)NCc4ccccc4)C3)no2)cc1	inconclusive [inhibitor, single point]		
COc1ccc(C(=O)N[C@@H]2C=C[C@@H](c3c(C)nn(-c4ccccc4)c3C)C2)cc1		inactive: -15.9% [at 88.5 µM]	
O[C@@H]1CCN(Cc2nc(C3(O)CCN(C4CCCC4)CC3)cs2)C1		inactive: 2.97% [at 88.5 µM]	
CCN(CCNC(=O)CC1=C2CCCCC2N(C)C1=O)Cc1ccccc1 (stereo unspecified)	inconclusive [inhibitor, single point]		
O=C(NCc1ccc(Cl)cc1)C1CCN(C(=O)c2ncn3c2COC(c2ccccc2)C3)CC1 (stereo unspecified)	inconclusive [inhibitor, single point]		
COCCN[C@H]1[C@@H]2OC[C@@H](O2)[C@@H](NC(=O)Nc2ccc(OC)cc2)[C@@H]1O	inconclusive [inhibitor, full curve, poor fit]		
COc1cccc(NC(=O)N[C@H]2C[C@@H](C(=O)N[C@@H](CC(C)C)C(N)=O)N(C(=O)CC(C)(C)C)C2)c1	inconclusive [inhibitor, single point]		
CCOc1ccccc1CN1CC(C(=O)NCc2ccncc2)C2(CCOCC2)C1 (stereo unspecified)	inconclusive [inhibitor, single point]		

— PubChem BioAssay AID1671188 (National Center for Advancing Translational Sciences (NCATS), 2021)
